# Data from publication PMC5892938.
# The other results are listed elsewhere or left out. At the low end of the ranking the order means little.
# Target: GST-SBP-SLBP (stem-loop binding protein) (UniProt Q14493)
# Experiment: targeted RNA Bind-n-Seq;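 note: DESeq read counts versus GST-SBP nonspecific binding control pulldown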
# Conditions: RBNS binding buffer: 25 mM Tris pH 7.5, 150 mM KCl, 3 mM MgCl2, 0.1% Tween, 0.5 mg/mL BSA, 1 mM DTT; 27 nM protein, 750 pM RNA pool; temperature not stated; high values mean tight binding
row,Sequence,binding signal (log2 fold change)
1,GGUCACGUCUCAAUCAACUCUUUCCCCAGGGAAAUCCCUGGUAUACUCAACAGCUCGCAGUCAAG,0.136
2,GGUCACGUCUCAAUCAACUCUAUCCCCAGGGAAAUCCCUGGUUAACUCAACAGCUCGCAGUCAAG,-0.0887
3,GGUCACGUCUCAAUCAACUCAUUUUCAGGAGUUUACUCCUGUUUACUCAACAGCUCGCAGUCAAG,0.166
4,GGUCACGUCUCAAUCAACUCAAUAGAGGGGGGGAAAACCCCUUUACCCUCAAAUUCAACAGCUCGCAGUCAAG,-0.123
5,GGUCACGUCUCAAUCAACUCAACGCCAGGAGUUUUCUCCUGUUAUUUCAACAGCUCGCAGUCAAG,-0.112
6,GGUCACGUCUCAAUCAACUCUACUUCCAGGGAAAUCCCUGGUAAUCUCAACAGCUCGCAGUCAAG,0.135
7,GGUCACGUCUCAAUCAACUCUACUCCCAGGGAAAGCCCUGGCAAUUUCAACAGCUCGCAGUCAAG,0.1
8,GGUCACGUCUCAAUCAACUCUAGUCCCAGGGAAAACCCUGGCAAAUUCAACAGCUCGCAGUCAAG,-0.0666
9,GGUCACGUCUCAAUCAACUCAUUUCCCAGGGAAAACCCUGGUUAUUUCAACAGCUCGCAGUCAAG,0.0871
10,GGUCACGUCUCAAUCAACUCCUUAGAGGGGGGGAAAACCCCUUUACCCUCAUACUCAACAGCUCGCAGUCAAG,-0.325
11,GGUCACGUCUCAAUCAACUCUUCUUCAGGAGUUUUCUCCUGUUUUCUCAACAGCUCGCAGUCAAG,0.00641
12,GGUCACGUCUCAAUCAACUCAUUCCCCAGGGAAAGCCCUGGUUUACUCAACAGCUCGCAGUCAAG,-0.072
13,GGUCACGUCUCAAUCAACUCCUUAGAGGGGGGGAAAACCCCUUUGCCCUCAUACUCAACAGCUCGCAGUCAAG,0.464
14,GGUCACGUCUCAAUCAACUCUACUCCCAGGGAAAUCCCUGGUUUAUUCAACAGCUCGCAGUCAAG,0.121
15,GGUCACGUCUCAAUCAACUCUUCCCCCAGGGAAAGCCCUGGUAAAUUCAACAGCUCGCAGUCAAG,-0.0772
16,GGUCACGUCUCAAUCAACUCUCCAGAGGGGGGGAAAACCCCUUUACCCUCACUAUCAACAGCUCGCAGUCAAG,0.294
17,GGUCACGUCUCAAUCAACUCAUCUCCCAGGGAAAUCCCUGGUAAACUCAACAGCUCGCAGUCAAG,0.123
18,GGUCACGUCUCAAUCAACUCAAUCCCCAGGGAAAGCCCUGGCUAACUCAACAGCUCGCAGUCAAG,-0.0761
19,GGUCACGUCUCAAUCAACUCAUCCCCCAGGGAAAUCCCUGGCUUUCUCAACAGCUCGCAGUCAAG,-0.0283
20,GGUCACGUCUCAAUCAACUCAAUUCCAGGAGUUUCCUCCUGCUUACUCAACAGCUCGCAGUCAAG,0.229
21,GGUCACGUCUCAAUCAACUCUUCGCCCAGGGAAACCCCUGGUUAUCUCAACAGCUCGCAGUCAAG,-0.108
22,GGUCACGUCUCAAUCAACUCAAUCCCAGGAGUUUUCUCCUGCAUUCUCAACAGCUCGCAGUCAAG,0.283
23,GGUCACGUCUCAAUCAACUCCAUAGAGGGGGGGAAAACCCCUUUGCCCUCCAAAUCAACAGCUCGCAGUCAAG,-0.171
24,GGUCACGUCUCAAUCAACUCAAAAGAGGGGGGGAAAACCCCUUUGCCCUCAUCAUCAACAGCUCGCAGUCAAG,-0.177

row,Sequence,binding signal (log2 fold change)
1,GGUCACGUCUCAAUCAACUCUUUCUCAGGAGUUUCCUCCUGCUUACUCAACAGCUCGCAGUCAAG,0.271
2,GGUCACGUCUCAAUCAACUCUCACGAGGGGGGGAAAACCCCUUUACCCUCAUUAUCAACAGCUCGCAGUCAAG,-0.253
3,GGUCACGUCUCAAUCAACUCUUCUUCCAGGGAAAUCCCUGGUUAUGUCAACAGCUCGCAGUCAAG,-0.0129
4,GGUCACGUCUCAAUCAACUCUAUCUCAGGAGUUUCCUCCUGUUUAUUCAACAGCUCGCAGUCAAG,-0.0312
5,GGUCACGUCUCAAUCAACUCAAUCCCAGGAGUUUACUCCUGUUUUCUCAACAGCUCGCAGUCAAG,-0.22
6,GGUCACGUCUCAAUCAACUCUCCGGAGGGGGGGAAAACCCCUUUACCCUCAAUUUCAACAGCUCGCAGUCAAG,-0.221
7,GGUCACGUCUCAAUCAACUCUAUCUCCAGGGAAAUCCCUGGCAUGUUCAACAGCUCGCAGUCAAG,-0.0829
8,GGUCACGUCUCAAUCAACUCAACUUCCAGGGAAAGCCCUGGCAAUUUCAACAGCUCGCAGUCAAG,-0.0704
9,GGUCACGUCUCAAUCAACUCUUCUUCCAGGGAAAGCCCUGGCUUUCUCAACAGCUCGCAGUCAAG,-0.0891
10,GGUCACGUCUCAAUCAACUCAAUUUCCAGGGAAAACCCUGGUUUAUUCAACAGCUCGCAGUCAAG,-0.134
11,GGUCACGUCUCAAUCAACUCCACGGAGGGGGGGAAAACCCCUUUACCCUCAAUCUCAACAGCUCGCAGUCAAG,0.0204
12,GGUCACGUCUCAAUCAACUCUACUUCCAGGGAAAUCCCUGGCAAACUCAACAGCUCGCAGUCAAG,0.161
13,GGUCACGUCUCAAUCAACUCUUCUUCCAGGGAAAACCCUGGUAUAUUCAACAGCUCGCAGUCAAG,-0.108
14,GGUCACGUCUCAAUCAACUCAAGUCCAGGAGUUUUCUCCUGCAAAGUCAACAGCUCGCAGUCAAG,0.447
15,GGUCACGUCUCAAUCAACUCUUUCCCCAGGGAAAUCCCUGGCUAACUCAACAGCUCGCAGUCAAG,-0.0143
16,GGUCACGUCUCAAUCAACUCUUCCUCAGGAGUUUUCUCCUGUUAUCUCAACAGCUCGCAGUCAAG,-0.0216
17,GGUCACGUCUCAAUCAACUCUAAAGAGGGGGGGAAAACCCCUUUACCCUCCACAUCAACAGCUCGCAGUCAAG,0.0526
18,GGUCACGUCUCAAUCAACUCUUUAGAGGGGGGGAAAACCCCUUUACCCUCAACUUCAACAGCUCGCAGUCAAG,-0.273
19,GGUCACGUCUCAAUCAACUCCCUAGAGGGGGGGAAAACCCCUUUACCCUCCGUAUCAACAGCUCGCAGUCAAG,0.0636
20,GGUCACGUCUCAAUCAACUCUUCCCCAGGAGUUUCCUCCUGUUAAUUCAACAGCUCGCAGUCAAG,0.0064
21,GGUCACGUCUCAAUCAACUCAUCCUCAGGAGUUUUCUCCUGUAUACUCAACAGCUCGCAGUCAAG,0.0577
22,GGUCACGUCUCAAUCAACUCCUUAGAGGGGGGGAAAACCCCUUUGCCCUCAAAAUCAACAGCUCGCAGUCAAG,-0.0247
23,GGUCACGUCUCAAUCAACUCAACUUCCAGGGAAAUCCCUGGCAUUUUCAACAGCUCGCAGUCAAG,-0.319
